Measured values: PubChem BioAssay AID588591 (National Center for Advancing Translational Sciences (NCATS), 2011)
Out of some 390,000 compounds screened, about 4,700 (1.2%) were called active. This list was built around the results that the source calls inconclusive (neither active nor inactive); the mix of calls is not that of the screen. The call rests on the fitted dose curve; in most records, active means well fitted inhibition curve with a large enough effect; inconclusive means small, poorly fitted or top-dose-only effect, or another doubt; inactive means no such curve, though single readings can be large or run the other way. Potencies beside an inconclusive call are fits to weak or partial responses and may not hold up.

Biological target: DNA polymerase eta (Homo sapiens) (UniProt Q9Y253)
Chain of UniProt Q9Y253 (Q9Y253 whole entry, looked up): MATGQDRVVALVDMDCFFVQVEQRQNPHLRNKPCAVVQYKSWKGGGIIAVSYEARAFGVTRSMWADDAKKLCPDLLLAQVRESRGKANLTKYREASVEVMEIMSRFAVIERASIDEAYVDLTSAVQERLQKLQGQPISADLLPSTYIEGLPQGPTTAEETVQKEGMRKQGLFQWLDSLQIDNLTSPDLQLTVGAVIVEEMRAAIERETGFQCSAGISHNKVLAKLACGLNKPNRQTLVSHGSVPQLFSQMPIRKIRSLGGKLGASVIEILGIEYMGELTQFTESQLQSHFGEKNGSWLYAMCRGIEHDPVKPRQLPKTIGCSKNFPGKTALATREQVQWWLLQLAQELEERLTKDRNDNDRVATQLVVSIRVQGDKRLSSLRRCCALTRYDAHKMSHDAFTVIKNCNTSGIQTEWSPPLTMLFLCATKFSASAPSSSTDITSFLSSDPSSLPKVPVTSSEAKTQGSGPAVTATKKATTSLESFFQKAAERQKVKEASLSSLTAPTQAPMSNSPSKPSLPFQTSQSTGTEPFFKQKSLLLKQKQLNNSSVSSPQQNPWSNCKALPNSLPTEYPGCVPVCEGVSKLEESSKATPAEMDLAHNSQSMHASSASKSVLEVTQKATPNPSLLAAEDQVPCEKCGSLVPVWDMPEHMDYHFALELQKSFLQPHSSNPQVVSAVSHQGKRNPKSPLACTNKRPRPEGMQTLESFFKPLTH
Assay: qHTS for Inhibitors of Polymerase Eta
Conditions: recombinant Pol eta, fluorescent DNA replication assay; series mostly up to 114 µM
Outline: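 Fluorescent replication assay: 50 nM final substrate added after a 15 min room-temperature compound preincubation with 10 nM enzyme. Signal taken at 0 min and again at 10 min.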
Potency means the concentration at half of the fitted maximal effect; tags describe the fitted curve by direction and shape.

**Q.** With `CN(C)c1ccc(-c2nc(-c3ccncc3)no2)cc1[N+](=O)[O-]` as the molecule, how does the Potency read?
**A.** inactive

**Q.** Which Potency does the source give for `Cc1ccc(N=C2SC(C(=O)Nc3ccc(OC(F)(F)F)cc3)C(N)=C2C(=O)Nc2c(C)cc(C)cc2C)cc1` (stereo not given) here?
**A.** inconclusive: 79.4 µM [inhibitor, partial curve, poor fit]

**Q.** With `CCn1c(SCC(=O)O)nc2sc3c(c2c1=O)CCC3` as the molecule, how does the Potency read?
**A.** active: 12.6 µM

**Q.** With `O=C(NC1CCCc2ccccc21)c1cccc(S(=O)(=O)N2CCOCC2)c1` (stereo not given) as the molecule, how does the Potency read?
**A.** inactive

**Q.** Which Potency does the source give for `Cc1cccc(C)c1NC(=O)CSCC(=O)c1ccc(O)c(O)c1` here?
**A.** inconclusive: 8.91 µM [inhibitor, full curve, poor fit]

**Q.** For `COc1cccc(C(=O)Nc2ccc3nc(SCc4ccc(C)cc4)sc3c2)c1`, which Potency is on record?
**A.** inactive

**Q.** For `Oc1[nH]c2ccccc2c1N=Nc1nncc2ccccc12`, which Potency is on record?
**A.** inconclusive: 79.4 µM [inhibitor, single point]

**Q.** For `COCCNC(=O)CSc1nc2cc3c(cc2c(=O)n1CCCCCC(=O)NCCc1ccc(OC)c(OC)c1)OCO3`, which Potency is on record?
**A.** inactive

**Q.** For `C=CCC1=C/C(=C\c2c(N)n3nc(CC(=O)N4CCOCC4)sc3nc2=O)C=C(OC)C1=O`, which Potency is on record?
**A.** active: 31.6 µM

**Q.** `Cn1cncc1C#Cc1c(C=O)n(C)c2ccccc12` was tested. Which Potency did it give?
**A.** inactive

**Q.** Which Potency does the source give for `O=C1CCc2cccc(O)c2N1` here?
**A.** inconclusive: 35.5 µM [inhibitor, partial curve, poor fit]

**Q.** With `O=C1c2ccccc2-c2onc3c(Br)cc(NC4CCCCC4)c1c23` as the molecule, how does the Potency read?
**A.** inconclusive: 3.98 µM [inhibitor, full curve, poor fit]

**Q.** With `C/C=C(\C)C(=O)OC1CC(C)(C)C[C@H]2C3=CC[C@@H]4[C@@]5(C)CCC(O[C@@H]6O[C@@H](C(=O)O)[C@@H](O)C(O[C@@H]7OC[C@H](O)[C@@H](O)[C@@H]7O[C@@H]7OC(CO)C(O)[C@@H](O)[C@@H]7O)C6O[C@@H]6OC(CO)C(O)C(O)C6O)[C@@](C)(CO)[C@@H]5CC[C@]4(C)[C@]3(C)CC(O)[C@@]12CO` (stereo not given in full) as the molecule, how does the Potency read?
**A.** inconclusive: 31.6 µM [inhibitor, partial curve, poor fit]

**Q.** How did the Potency turn out when `O=c1oc2cc(O)ccc2c2ccccc12` was run?
**A.** inconclusive: 28.2 µM [inhibitor, partial curve, poor fit]

**Q.** How did the Potency turn out when `Cc1ccc(NC(=S)NNc2ccc(C(=O)O)cc2[N+](=O)[O-])cc1C` was run?
**A.** inactive

**Q.** With `CCN(CC)c1ccc(NC(=O)C(NS(=O)(=O)c2cccs2)C(C)C)c(C)c1` (stereo not given) as the molecule, how does the Potency read?
**A.** inconclusive: 89.1 µM [inhibitor, single point]

**Q.** How did the Potency turn out when `Cc1ccc(-n2c(SCC(=O)NCc3ccco3)nc3sc4c(c3c2=O)CC(C)(C)SC4)cc1` was run?
**A.** inconclusive: 35.5 µM [inhibitor, partial curve, poor fit]

**Q.** With `Cc1c(C(=O)N2CCN(c3ccccn3)CC2)cccc1[N+](=O)[O-]` as the molecule, how does the Potency read?
**A.** inactive

**Q.** With `COc1ccc(NC(=S)N(CCCN2CCC(C)CC2)Cc2cccs2)cc1Cl` as the molecule, how does the Potency read?
**A.** inconclusive: 79.4 µM [inhibitor, partial curve, poor fit]

**Q.** How did the Potency turn out when `CCOc1ccccc1N1CCN(C(=O)c2c(-c3c(F)cccc3Cl)noc2C)CC1` was run?
**A.** inconclusive: 79.4 µM [inhibitor, partial curve, poor fit]

**Q.** With `Oc1ccc(C2Nc3cccc4cccc(c34)N2)cc1` as the molecule, how does the Potency read?
**A.** inconclusive: 25.1 µM [inhibitor, full curve]

**Q.** How did the Potency turn out when `COc1ccc(/C=N/NC(=O)Cc2csc(Nc3cccc(C(F)(F)F)c3)n2)c(OC)c1` was run?
**A.** inconclusive: 44.7 µM [inhibitor, partial curve, poor fit]

**Q.** With `Cn1c(N)c(C(=O)COC(=O)c2cc(S(=O)(=O)N3CCCCC3)ccc2Cl)c(=O)n(C)c1=O` as the molecule, how does the Potency read?
**A.** inconclusive: 39.8 µM [inhibitor, partial curve, poor fit]

**Q.** With `CCOC(=O)c1nc2sc3c(c2c(=O)n1C(C)C(=O)OCC)CCCC3` (stereo not given) as the molecule, how does the Potency read?
**A.** inactive

**Q.** With `CC(=O)c1ccc(S(=O)(=O)Nc2ccc(C(=O)NCC(c3ccccc3)N(C)C)cc2)cc1` (stereo not given) as the molecule, how does the Potency read?
**A.** inconclusive: 50.1 µM [inhibitor, partial curve, poor fit]

**Q.** For `O=C1/C(=C/c2ccco2)SC(=S)N1CC1CCCO1` (stereo not given), which Potency is on record?
**A.** active: 50.1 µM

**Q.** How did the Potency turn out when `Cc1cccc(-n2c3nc(=O)[nH]c(=O)c-3cc3cc([N+](=O)[O-])ccc32)c1` was run?
**A.** active: 20 µM

**Q.** With `O=C(c1ccc(COc2c(F)c(F)c(F)c(F)c2F)o1)N1CCN(Cc2ccc3c(c2)OCO3)CC1` as the molecule, how does the Potency read?
**A.** inconclusive: 15.8 µM [inhibitor, full curve, poor fit]

**Q.** For `Cc1cc(S(=O)(=O)C(CNC(=O)COc2ccccc2)c2cccs2)ccc1F` (stereo not given), which Potency is on record?
**A.** inactive

**Q.** For `O=C(COc1ccc(Br)cc1)N(Cc1nnc(-c2ccccc2Cl)o1)C1CC1`, which Potency is on record?
**A.** inactive

**Q.** How did the Potency turn out when `CCCCC(CC)CNC(=O)c1ccc2c(=O)n(CCOC)c(=O)[nH]c2c1` (stereo not given) was run?
**A.** inactive

**Q.** Which Potency does the source give for `CC1CCN(S(=O)(=O)c2ccc(NC(=O)C3CSC4(C)CCC(=O)N34)cc2)CC1` (stereo not given) here?
**A.** active: 20 µM

**Q.** How did the Potency turn out when `CCC(C)C(NC(=O)c1ccccc1NC(=O)c1ccco1)C(=O)NC1CCCCC1` (stereo not given) was run?
**A.** inconclusive: 31.6 µM [inhibitor, single point]

**Q.** Which Potency does the source give for `Cc1ccc2c(n1)sc1c(-c3ccc(Br)cc3)c(C#N)c(N)nc12` here?
**A.** inconclusive: 17.8 µM [inhibitor, partial curve]

**Q.** How did the Potency turn out when `O=[N+]([O-])c1cccc(C2Nc3cccc4cccc(c34)N2)c1` was run?
**A.** inconclusive: 14.1 µM [inhibitor, full curve, poor fit]

**Q.** Which Potency does the source give for `Nc1cc2sc(-c3ccc(C(=O)O)cc3)nc2cc1Cl` here?
**A.** active: 31.6 µM

**Q.** With `COC(=O)c1ccc(COc2ccc(/C=N/Nc3cccc(C(=O)O)c3)cc2)cc1` as the molecule, how does the Potency read?
**A.** active: 17.8 µM

**Q.** Which Potency does the source give for `CCC(=O)Nc1ccccc1-c1nc2ccccc2n(CC(=O)c2ccc(C)c(C)c2)c1=O` here?
**A.** inactive

**Q.** `O=c1oc2ccccc2nc1/C=C(O)/C=C\c1ccccc1` was tested. Which Potency did it give?
**A.** inconclusive: 17.8 µM [inhibitor, partial curve, poor fit]

**Q.** For `CCCCN(CCCC)CP(=O)(c1ccccc1)c1ccccc1`, which Potency is on record?
**A.** inconclusive: 89.1 µM [inhibitor, partial curve, poor fit]

**Q.** `Cc1oc(CSCC2CCCO2)cc1C(=O)O` (stereo not given) was tested. Which Potency did it give?
**A.** inconclusive: 14.1 µM [inhibitor, partial curve, poor fit]

**Q.** With `COC(=O)c1cc(C)nc2c1C(=O)C(=O)C=C2N1CCOCC1` as the molecule, how does the Potency read?
**A.** active: 4.47 µM

**Q.** For `CCOc1ccccc1NC(=O)CSc1nnc(N)s1`, which Potency is on record?
**A.** inactive

**Q.** Which Potency does the source give for `Cc1ccc(C(=O)/C=C/c2cn(CC(O)CN3CCc4ccccc43)c3ccccc23)cc1` (stereo not given) here?
**A.** inconclusive: 39.8 µM [inhibitor, partial curve, poor fit]

**Q.** `C[C@]12CCC(=O)C=C1C=C[C@@H]1[C@@H]2CC[C@@]2(C)[C@H]1CC[C@@]21CCC(=O)O1` was tested. Which Potency did it give?
**A.** inactive

**Q.** For `O=C(CN1C(=O)COc2ccc(S(=O)(=O)N3CCOCC3)cc21)N1CCN(c2cccc(C(F)(F)F)c2)CC1`, which Potency is on record?
**A.** inactive

**Q.** For `O=C(O)c1cc(Cl)c2c(c1)[C@@H]1C=CC[C@@H]1[C@H](c1ccc(S(=O)(=O)N3CCOCC3)cc1)N2`, which Potency is on record?
**A.** active: 28.2 µM

**Q.** How did the Potency turn out when `O=C(O)c1ccc(-n2cc(-c3cc4ccccc4oc3=O)[nH]c2=S)cc1` was run?
**A.** inconclusive: 50.1 µM [inhibitor, partial curve, poor fit]

**Q.** With `Cc1ccc(C)c(/C=C(\C(=O)O)c2ccc(S(=O)(=O)N3CCCCC3)s2)c1` as the molecule, how does the Potency read?
**A.** active: 50.1 µM

**Q.** With `O=C(CSc1nnc(NC(=O)c2c(F)cccc2F)s1)NCc1ccco1` as the molecule, how does the Potency read?
**A.** inconclusive: 12.6 µM [inhibitor, full curve, poor fit]

**Q.** With `COc1ccc(Cl)cc1NC(=O)C(C)Sc1nncn1C` (stereo not given) as the molecule, how does the Potency read?
**A.** inconclusive: 5.62 µM [inhibitor, full curve, poor fit]

**Q.** How did the Potency turn out when `O=C(CCS(=O)(=O)c1ccc(Br)cc1)NCCc1ccccc1` was run?
**A.** active: 20 µM

**Q.** For `COc1cccc(N2CCN(CC(=O)NC(=O)NCc3ccco3)CC2)c1`, which Potency is on record?
**A.** active: 79.4 µM

**Q.** How did the Potency turn out when `Cc1cc(S(=O)(=O)N2CCOCC2)ccc1OCC(=O)NCCN1CCOCC1` was run?
**A.** inconclusive: 89.1 µM [inhibitor, partial curve, poor fit]

**Q.** With `Cc1nc2ccc3nc(NC(=O)c4ccco4)sc3c2s1` as the molecule, how does the Potency read?
**A.** inconclusive: 11.2 µM [inhibitor, full curve, poor fit]

**Q.** How did the Potency turn out when `Cc1cc(C)cc(NC(=O)COc2coc(CN3CCc4ccccc43)cc2=O)c1` was run?
**A.** inconclusive: 15.8 µM [inhibitor, full curve, poor fit]

**Q.** Which Potency does the source give for `CCCN1C(=O)SC(CC(=O)Nc2ccc(Br)cc2)C1=O` (stereo not given) here?
**A.** inconclusive: 79.4 µM [inhibitor, partial curve, poor fit]

**Q.** With `COC(=O)c1cccc(NC(=O)CSc2nc(O)c(-c3ccccc3)c(=O)[nH]2)c1` as the molecule, how does the Potency read?
**A.** active: 25.1 µM

**Q.** Which Potency does the source give for `COc1ccc(-n2c(C)nc3cc(C(=O)NCc4ccco4)ccc32)cc1` here?
**A.** inconclusive: 35.5 µM [inhibitor, partial curve, poor fit]

**Q.** With `CN=c1scc(-c2ccccc2F)n1/N=C/c1ccc(O)c(O)c1O` as the molecule, how does the Potency read?
**A.** inconclusive: 25.1 µM [inhibitor, partial curve, poor fit]

**Q.** For `CC(C)Cc1nnc(NC(=O)CN2C(=O)C3CCCCC3C2=O)s1` (stereo not given), which Potency is on record?
**A.** inactive

**Q.** Which Potency does the source give for `Cc1c(C(=O)NNC(=O)c2ccccc2O)oc2ccc(Br)cc12` here?
**A.** inconclusive: 56.2 µM [inhibitor, partial curve, poor fit]

**Q.** How did the Potency turn out when `COc1cc(Cl)c(C)cc1Nc1nc2ccccc2nc1NS(=O)(=O)c1ccccc1` was run?
**A.** inconclusive: 89.1 µM [inhibitor, single point]

**Q.** `CC(=O)Nc1cccc2cc(O)ccc12` was tested. Which Potency did it give?
**A.** inconclusive: 35.5 µM [inhibitor, partial curve]

**Q.** `O=C(/C=C/c1ccco1)NC(=S)Nc1cccc(-c2nc3ccccc3o2)c1` was tested. Which Potency did it give?
**A.** active: 31.6 µM
